Among all 360,000 compounds or so, about 6,000 (1.7%) were called active. This list was built around the results that the source calls inconclusive (neither active nor inactive); the mix of calls is not that of the screen. The call rests on the fitted dose curve; in most records, active means well fitted cell-killing curve with a large enough effect; inconclusive means small, poorly fitted or top-dose-only effect, or effect the other way; inactive means flat fitted curve, though single readings scatter. No potency is given beside an inconclusive call; the fits are too rough.
Assay: qHTS for induction of synthetic lethality in tumor cells producing 2HG: qHTS for the HT-1080-NT fibrosarcoma cell line;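 further: NT is the 2HG producing partner of a matched IDH1 knockdown line; nearly all actives have a fitted effect of over 55% in size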;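 on activity, negative = less viability: 0% = DMSO-treated cells and -100% = media-only wells without cells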
Conditions: HT-1080-NT fibrosarcoma viability, CellTiter-Glo ATP luminescence, 48 h; activity, negative = less viability: at 46.1 µM (top of the series) unless noted
In short: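 Fibrosarcoma NT cells, 750 per well in 5% FBS RPMI, were exposed to compound for 48 hours. Viability: CellTiter-Glo luminescence.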
For `O=C(Nc1ncccn1)c1ccc([N+](=O)[O-])o1`, the Potency was inconclusive [cytotoxic, single point].
For `Cc1cccc(NC(=S)Nc2cccc(C)n2)n1`, the Potency was “inactive”.
With `COc1cccc(-c2cnc(C(O)c3cc(C)cc(C)c3)[nH]2)c1` (stereo not given) the Potency was “inactive”.
With `Cc1cc(N2CCN(S(=O)(=O)c3ccc(C)c(C)c3)CC2)c2ccccc2n1` the Potency was inconclusive [cytotoxic, single point].
With `N#C/C(=N\Nc1ccc(S(=O)(=O)N2CCCCCC2)cc1)C(N)=S` the activity, negative = less viability was inconclusive: -36.1% [cytotoxic].
In the case of `CSCCC(NC(C)=O)C(=O)OCC(=O)N(c1ccccc1)c1ccccc1` (stereo not given), the Potency is reported as “inactive”.
In the case of `CC(=O)NC1=C(C#N)C(c2ccccc2)c2c(ccc3ccccc23)O1` (stereo not given), the Potency is reported as inconclusive [cytotoxic, partial curve].
For `C=C1CCC[C@]2(C)C[C@H]3OC(=O)C(CN4CC(C)OC(C)C4)[C@H]3C[C@@H]12` (stereo not given in full), the Potency was inconclusive [cytotoxic, single point].
In the case of `COc1ccc(N(CC(=O)NC(C)C)S(=O)(=O)c2ccc(NC(C)=O)cc2)cc1`, the Potency is reported as inconclusive [cytotoxic, single point].
In the case of `CC(C)c1ccccc1-n1c(SCC(=O)N2CCN(c3ccccc3)CC2)nnc1-c1cccnc1`, the Potency is reported as inconclusive [cytotoxic, partial curve].
In the case of `COC(=O)C(C)N1C(=O)S/C(=C\c2cc(C)n(-c3ccccn3)c2C)C1=O` (stereo not given), the Potency is reported as “inactive”.
With `COc1ccc(C(=O)NCCc2cc3c(OC)ccc(OC)c3[nH]c2=O)cc1OC` the Potency was inconclusive [cytotoxic, partial curve].
For `Cc1cc2c(cc1C)N(Cc1ccc(Cl)cc1)C1=NCCCN12`, the Potency was active: 25.9 µM.
With `O=C(Nc1nc2ccccc2s1)c1cc(-c2ccco2)nc2ccccc12` the Potency was inconclusive [cytotoxic, single point].
For `O=C(CCN1CCOCC1)N/N=C/c1cc(Br)cc(Br)c1O`, the Potency was inconclusive [cytotoxic, partial curve].
With `CC(=Nc1ccc(C)cc1C)c1sc2ccccc2c1O` the Potency was “inactive”.
In the case of `CCC(C)Cn1cnc2c(SCc3ccccc3F)nc(N)nc21` (stereo not given), the Potency is reported as “inactive”.
For `COc1ccc(C2=Nc3ccccc3NC(=O)C2N(Cc2ccc(F)cc2)C(=O)c2ccco2)cc1` (stereo not given), the Potency was inconclusive [cytotoxic, single point].
With `COc1ccc(-c2nc(NC(=O)c3cc(C(C)(C)C)nn3C)sc2C)cc1` the Potency was active: 15.8 µM.
With `Cc1ccc(NC(=O)c2ccc(NCCCN3CCOCC3)c([N+](=O)[O-])c2)cc1Cl` the Potency was active: 18.4 µM.
With `O=C1N/C(=C\c2ccccc2)c2ccccc21` the Potency was inconclusive [cytotoxic, partial curve].
For `CNNC(=S)NC1CC2CC1C1C=CCC21` (stereo not given), the Potency was “inactive”.
In the case of `CCOC(=O)C1=NN(c2ccccc2)C(=O)C1`, the Potency is reported as inconclusive [rising, single point].
With `O=c1cc(CN2CCN(Cc3ccccc3)CC2)c2cc(O)ccc2o1` the Potency was “inactive”.
With `CCOP(=O)(c1ccccc1)C(O)c1ccc([N+](=O)[O-])cc1` (stereo not given) the Potency was “inactive”.
In the case of `O=S1(=O)c2ccc(Br)cc2N2CCC[C@H]2CN1Cc1ccccc1`, the Potency is reported as inconclusive [cytotoxic, partial curve].
For `Cc1ccc(-c2cc(O)cc3sc(=O)oc23)cc1C`, the Potency was inconclusive [cytotoxic, single point].
In the case of `CC(=O)c1ccc(NS(=O)(=O)c2cc3c(cc2C)N(C)CCO3)cc1`, the Potency is reported as inconclusive [cytotoxic, single point].
For `N#Cc1ccc(/C=C/C(=O)c2cccnc2)cc1`, the activity, negative = less viability was inconclusive: -30.7% [cytotoxic].
In the case of `CCCCN(CCCC)S(=O)(=O)c1ccc(NS(=O)(=O)c2ccc(NC(C)=O)cc2)cc1`, the Potency is reported as inconclusive [cytotoxic, single point].
In the case of `COc1cccc(C(=O)/C(C#N)=N/Nc2cccc(-c3ccnc(C)n3)c2)c1`, the Potency is reported as active: 25.9 µM.
With `O=C(Nc1ccc(F)c(F)c1)c1cnc(-c2ccccc2)nc1-c1ccccc1` the Potency was inconclusive [cytotoxic, single point].
With `FC(F)(F)c1cnc(N2CCCN(C(=S)Nc3ccccc3)CC2)c(Cl)c1` the Potency was inconclusive [cytotoxic, partial curve].
With `CS(=O)(=O)c1ncc(Cl)c(C(=O)Nc2ccc3ccccc3c2)n1` the Potency was active: 9.2 µM.
For `CCC(=O)c1cn(CC(=O)Nc2cccc(OC)c2)c2ccccc12`, the Potency was “inactive”.
For `Cc1cccc(-n2ncc3c(Nc4c(C)n(C)n(-c5ccccc5)c4=O)ncnc32)c1`, the Potency was “inactive”.
In the case of `CCOc1ccc(CN2CCN(Cc3cc4c(cc3Cl)OCO4)CC2CCO)cc1` (stereo not given), the Potency is reported as inconclusive [cytotoxic, single point].
In the case of `COc1ccc(OC)c(-n2c(CNC3CCN(Cc4ccccc4)CC3)nc3ccccc3c2=O)c1`, the Potency is reported as inconclusive [cytotoxic, single point].
For `C/C(=N\NC(=O)c1cc(-c2cccs2)nc2ccccc12)c1ccccn1`, the Potency was inconclusive [cytotoxic, full curve].
In the case of `CC(Oc1ccc(Cl)cc1Cl)c1nc(-c2ccccn2)no1` (stereo not given), the Potency is reported as inconclusive [cytotoxic, single point].
With `COc1ccc(/C=N/NC(=O)c2cccc([N+](=O)[O-])c2)cc1OS(=O)(=O)c1ccc(C)cc1` the Potency was inconclusive [cytotoxic, single point].
For `CNC(=S)N/N=C/c1ccc(OCc2ccccc2)c(Br)c1`, the Potency was inconclusive [cytotoxic, single point].
With `COc1ccc(N2Cc3ccccc3C2=O)cc1` the Potency was inconclusive [cytotoxic, single point].
In the case of `COc1ccc(OC)c(S(=O)(=O)N2CCN(c3ncccn3)CC2)c1`, the Potency is reported as inconclusive [cytotoxic, single point].
For `COc1cccc(CNC(=O)[C@@H]2CCCN2C(=O)[C@@H]2CCCN2C(=O)c2cccs2)c1`, the Potency was “inactive”.
In the case of `COC(=O)CSc1ncnc2c1sc1nc3c(cc12)COC(C)(C)C3`, the Potency is reported as inconclusive [rising, partial curve, poor fit].
For `O=C1C=C(c2ccccc2Oc2ccccc2)C[C@@H](c2ccc(F)cc2)C1`, the Potency was inconclusive [cytotoxic, single point].
In the case of `CCOc1ccc(NC(=O)c2cc3c(C)nc4ccccc4c3o2)cc1`, the Potency is reported as inconclusive [cytotoxic, single point].
For `CC(=O)Nc1cncc(-c2ccccc2N(C)C)n1`, the Potency was inconclusive [rising, partial curve].
With `Cc1ccc(-c2nn3c(C)nnc3s2)cc1NC(=O)C(C)C` the Potency was “inactive”.
With `Cc1c(C(=O)NCc2ccc3c(c2)OCO3)oc2ccc(S(=O)(=O)N3CCC(C)CC3)cc12` the Potency was “inactive”.
With `COc1ccc2c(c1)-c1c(ssc1=S)C(C)(C)N2` the Potency was inconclusive [cytotoxic, single point].
In the case of `CC(C)(C)OC(=O)NCc1ccc(NC(=O)c2nc[nH]c2C(=O)N[C@@H](Cc2ccccc2)C(=O)OCc2ccccc2)cc1`, the Potency is reported as inconclusive [cytotoxic, single point].
In the case of `N#Cc1ccc(-c2nc3cc(Cl)ccc3c(=O)n2O)cc1`, the Potency is reported as inconclusive [cytotoxic, partial curve].
In the case of `Cc1cccc(NC(=S)NCCSc2ccc(Cl)cc2)c1`, the Potency is reported as “inactive”.
With `CN(CC(=O)Nc1ccccc1Cl)C(=O)c1ccc(N2CCCCCC2)c([N+](=O)[O-])c1` the activity, negative = less viability was inactive: -5.23% [at 9.24 µM].
For `Cc1nc(CNS(=O)(=O)c2ccc(Oc3ccccc3)cc2)cs1`, the Potency was inconclusive [cytotoxic, partial curve].
For `CCN(CC)C(=O)Cn1cc([N+](=O)[O-])cc1[N+](=O)[O-]`, the Potency was “inactive”.
For `CC(C)Nc1nc(Cl)nc(N(C#N)CN2C(=O)c3ccccc3C2=O)n1`, the Potency was inconclusive [cytotoxic, partial curve].
With `Cc1ccc2sc(N(CCCN(C)C)C(=O)c3ccc(Br)s3)nc2c1C` the Potency was active: 20.6 µM.
With `Cc1ccc(-c2c[n+](CC(=O)c3ccc(Br)cc3)c3n2CCCCC3)cc1` the Potency was active: 20.6 µM.
In the case of `Cc1ccc(Nc2nc(N)nc(CSc3nc4ccccc4s3)n2)cc1`, the Potency is reported as inconclusive [cytotoxic, single point].
With `CC1CCC(NC(=O)CCN2C(=O)C3CC=CCC3C2=O)CC1` (stereo not given) the Potency was “inactive”.
For `CSc1ccc(S(=O)(=O)Nc2ccc(S(=O)(=O)Nc3ccc(C)cc3)cc2)cc1`, the Potency was inconclusive [cytotoxic, single point].
With `O=C(NCCOc1ccccc1)C1Nc2ccc(C(F)(F)F)cc2C2c3ccccc3CC12` (stereo not given) the Potency was inconclusive [cytotoxic, single point].
With `CC1(C(=O)Nc2ccc3c(c2)OCO3)Cc2c(-c3cccc(C(N)=O)c3)ccnc2O1` (stereo not given) the Potency was inconclusive [cytotoxic, full curve, poor fit].
In the case of `CCOC(=O)c1ccc2ncc(C(=O)OCC)c(Nc3ccc(N4CCOCC4)cc3)c2c1`, the Potency is reported as inconclusive [cytotoxic, single point].
For `CCSc1nnc(NC(=O)CSc2nnc(CNC(=O)c3cc(OC)c(OC)c(OC)c3)o2)s1`, the Potency was inconclusive [rising, full curve].
With `CC(=O)N(C(C)=O)N1C(=O)C2C3c4ccccc4C(c4ccccc43)C2C1=O` (stereo not given) the Potency was active: 20.6 µM.
In the case of `O=C(NCCCc1ccccc1)c1ccc(CS(=O)Cc2ccccc2Cl)o1` (stereo not given), the Potency is reported as “inactive”.
Potency means the concentration at half of the fitted maximal effect; tags describe the fitted curve by direction and shape.
